# Reference: the supplement of paper PMC10724272
# MIC of invasive clinical C. tropicalis isolates, CLSI broth microdilution (fluconazole 0.12-256 mg/L, up to 1,024 for the azole-resistant cluster and its neighbour group; other ranges not stated); higher = less susceptible. Call: susceptible or wild type [S] / resistant or non-wild type [R] by CLSI breakpoints or cut-offs; intermediate and dose-dependent carry no call. '<=' and '>=' at the end values are inferred; the source marks only some of them. Isolates are numbered anew.
# Assays:
# Experiment in all cases: CLSI broth microdilution.
# micafungin = compound: CCCCCOc1ccc(-c2cc(-c3ccc(C(=O)N[C@H]4C[C@@H](O)[C@@H](O)NC(=O)[C@@H]5[C@@H](O)[C@@H](C)CN5C(=O)[C@H]([C@H](O)CC(N)=O)NC(=O)[C@H]([C@H](O)[C@@H](O)c5ccc(O)c(OS(=O)(=O)O)c5)NC(=O)[C@@H]5C[C@@H](O)CN5C(=O)[C@H]([C@@H](C)O)NC4=O)cc3)no2)cc1 [micafungin]
# anidulafungin = compound: CCCCCOc1ccc(-c2ccc(-c3ccc(C(=O)N[C@H]4C[C@@H](O)[C@@H](O)NC(=O)[C@@H]5[C@@H](O)[C@@H](C)CN5C(=O)[C@H]([C@@H](C)O)NC(=O)[C@H]([C@H](O)[C@@H](O)c5ccc(O)cc5)NC(=O)[C@@H]5C[C@@H](O)CN5C(=O)[C@H]([C@@H](C)O)NC4=O)cc3)cc2)cc1 [anidulafungin]
# caspofungin = compound: CC[C@H](C)C[C@H](C)CCCCCCCCC(=O)N[C@H]1C[C@@H](O)[C@@H](NCCN)NC(=O)[C@@H]2[C@@H](O)CCN2C(=O)[C@H]([C@H](O)CCN)NC(=O)[C@H]([C@H](O)[C@@H](O)c2ccc(O)cc2)NC(=O)[C@@H]2C[C@@H](O)CN2C(=O)[C@H]([C@@H](C)O)NC1=O [caspofungin]
# posaconazole = compound: CC[C@@H]([C@H](C)O)n1ncn(-c2ccc(N3CCN(c4ccc(OC[C@@H]5CO[C@@](Cn6cncn6)(c6ccc(F)cc6F)C5)cc4)CC3)cc2)c1=O [posaconazole]
# fluconazole = compound: OC(Cn1cncn1)(Cn1cncn1)c1ccc(F)cc1F [fluconazole]
# voriconazole = compound: C[C@@H](c1ncncc1F)[C@](O)(Cn1cncn1)c1ccc(F)cc1F [voriconazole]
# flucytosine = compound: Nc1[nH]c(=O)ncc1F [flucytosine]
# amphotericin B = compound: C[C@@H]1[C@H](O)[C@@H](C)/C=C/C=C/C=C/C=C/C=C/C=C/C=C/[C@H](O[C@@H]2O[C@H](C)[C@@H](O)[C@H](N)[C@@H]2O)C[C@@H]2O[C@](O)(C[C@@H](O)C[C@@H](O)[C@H](O)CC[C@@H](O)C[C@@H](O)CC(=O)O[C@H]1C)C[C@H](O)[C@H]2C(=O)O [amphotericin B]
# itraconazole = compound: CCC(C)n1ncn(-c2ccc(N3CCN(c4ccc(OCC5COC(Cn6cncn6)(c6ccc(Cl)cc6Cl)O5)cc4)CC3)cc2)c1=O [itraconazole]
Test System,MIC (micafungin),MIC (anidulafungin),MIC (caspofungin),MIC (posaconazole),MIC (fluconazole),MIC (voriconazole),MIC (flucytosine),MIC (amphotericin B),MIC (itraconazole)
"Candida tropicalis isolate 229 (ERG11 copies: 2, Erg11p: no key change)",0.03 mg/L [S],0.12 mg/L [S],0.06 mg/L [S],0.25 mg/L [S],2 mg/L [S],0.12 mg/L [S],≤ 0.06 mg/L [S],0.5 mg/L [S],0.5 mg/L [S]
"Candida tropicalis isolate 333 (ERG11 copies: 2, Erg11p: no key change)",0.03 mg/L [S],≤ 0.015 mg/L [S],0.03 mg/L [S],0.25 mg/L [S],1 mg/L [S],0.06 mg/L [S],≤ 0.06 mg/L [S],1 mg/L [S],0.12 mg/L [S]
"Candida tropicalis isolate 321 (ERG11 copies: 2, Erg11p: no key change)",0.03 mg/L [S],0.25 mg/L [S],0.25 mg/L [S],0.25 mg/L [S],2 mg/L [S],0.12 mg/L [S],≤ 0.06 mg/L [S],0.5 mg/L [S],0.25 mg/L [S]
"Candida tropicalis isolate 370 (ERG11 copies: 2, Erg11p: no key change)",0.03 mg/L [S],0.06 mg/L [S],0.03 mg/L [S],0.12 mg/L [S],1 mg/L [S],0.06 mg/L [S],≤ 0.06 mg/L [S],0.5 mg/L [S],0.12 mg/L [S]
"Candida tropicalis isolate 395 (ERG11 copies: 2, Erg11p: no key change)",0.03 mg/L [S],0.06 mg/L [S],0.06 mg/L [S],0.12 mg/L [S],1 mg/L [S],0.06 mg/L [S],≤ 0.06 mg/L [S],1 mg/L [S],0.12 mg/L [S]
"Candida tropicalis isolate 123 (ERG11 copies: 2, Erg11p: Y132F, S154F (heterozygous))",0.03 mg/L [S],0.03 mg/L [S],0.06 mg/L [S],0.25 mg/L [S],32 mg/L [R],2 mg/L [R],≤ 0.06 mg/L [S],1 mg/L [S],0.25 mg/L [S]
"Candida tropicalis isolate 207 (ERG11 copies: 2, Erg11p: Y132F, S154F (homozygous))",0.015 mg/L [S],≤ 0.015 mg/L [S],0.03 mg/L [S],0.25 mg/L [S],64 mg/L [R],2 mg/L [R],≤ 0.06 mg/L [S],1 mg/L [S],0.25 mg/L [S]
"Candida tropicalis isolate 9 (ERG11 copies: 2, Erg11p: no key change)",0.03 mg/L [S],≤ 0.015 mg/L [S],0.03 mg/L [S],0.12 mg/L [S],1 mg/L [S],0.06 mg/L [S],≤ 0.06 mg/L [S],1 mg/L [S],0.12 mg/L [S]
"Candida tropicalis isolate 219 (ERG11 copies: 2, Erg11p: no key change)",0.03 mg/L [S],0.06 mg/L [S],0.06 mg/L [S],0.12 mg/L [S],1 mg/L [S],0.06 mg/L [S],≤ 0.06 mg/L [S],1 mg/L [S],0.12 mg/L [S]
"Candida tropicalis isolate 16 (ERG11 copies: 2, Erg11p: no key change)",0.03 mg/L [S],0.06 mg/L [S],0.06 mg/L [S],0.25 mg/L [S],1 mg/L [S],0.12 mg/L [S],≤ 0.06 mg/L [S],1 mg/L [S],0.25 mg/L [S]
"Candida tropicalis isolate 355 (ERG11 copies: 2, Erg11p: no key change)",0.03 mg/L [S],0.12 mg/L [S],0.03 mg/L [S],0.25 mg/L [S],2 mg/L [S],0.12 mg/L [S],≤ 0.06 mg/L [S],0.5 mg/L [S],0.25 mg/L [S]
"Candida tropicalis isolate 435 (ERG11 copies: 2, Erg11p: no key change)",0.03 mg/L [S],0.12 mg/L [S],0.03 mg/L [S],0.12 mg/L [S],1 mg/L [S],0.06 mg/L [S],≤ 0.06 mg/L [S],1 mg/L [S],0.12 mg/L [S]
"Candida tropicalis isolate 178 (ERG11 copies: 2, Erg11p: no key change)",0.015 mg/L [S],≤ 0.015 mg/L [S],0.03 mg/L [S],0.25 mg/L [S],2 mg/L [S],0.12 mg/L [S],≤ 0.06 mg/L [S],1 mg/L [S],0.25 mg/L [S]
"Candida tropicalis isolate 400 (ERG11 copies: 2, Erg11p: no key change)",0.06 mg/L [S],0.03 mg/L [S],0.03 mg/L [S],0.5 mg/L [R],2 mg/L [S],0.25 µg/mL,≤ 0.06 mg/L [S],1 mg/L [S],0.5 mg/L [S]
"Candida tropicalis isolate 44 (ERG11 copies: 2, Erg11p: no key change)",0.03 mg/L [S],0.12 mg/L [S],0.06 mg/L [S],≥ 8 mg/L [R],16 mg/L [R],1 mg/L [R],0.12 mg/L [S],0.5 mg/L [S],8 mg/L [R]
"Candida tropicalis isolate 359 (ERG11 copies: 2, Erg11p: no key change)",0.06 mg/L [S],0.06 mg/L [S],0.03 mg/L [S],1 mg/L [R],8 mg/L [R],0.5 µg/mL,≤ 0.06 mg/L [S],1 mg/L [S],0.5 mg/L [S]
"Candida tropicalis isolate 405 (ERG11 copies: 2, Erg11p: Y132F, S154F (homozygous))",0.03 mg/L [S],0.03 mg/L [S],0.06 mg/L [S],0.25 mg/L [S],64 mg/L [R],2 mg/L [R],≤ 0.06 mg/L [S],0.25 mg/L [S],0.25 mg/L [S]
"Candida tropicalis isolate 163 (ERG11 copies: 2, Erg11p: no key change)",0.06 mg/L [S],0.25 mg/L [S],0.03 mg/L [S],0.12 mg/L [S],1 mg/L [S],0.06 mg/L [S],0.12 mg/L [S],1 mg/L [S],0.12 mg/L [S]
